Biological target: recombinant HER2 molecule (UniProt P04626 partial chain)
Test: BLI (Octet N1), HER2 on streptavidin biosensor

- Kd: 0.93 nM
- koff: 0.000155 s⁻¹
- kon: 167000 M⁻¹ s⁻¹
B1: scFv trastuzumab light chain P95ΔP96Δ (scFv)
scFv: MDIQMTQSPSSLSASVGDRVTITCRASQDVNTAVAWYQQKPGKAPKLLIYSASFLYSGVPSRFSGSRSGTDFTLTISSLQPEDFATYYCQQHYTTTFGQGTKVEIKRGSGGGGSGGGGSGGGGSKL[about 120 residues omitted]ASTKGPSVFPLAPSSLE
notes: also called Tmb-scFvPPΔ; Tmb-ScFv-PPΔ

From EP4737480A1 (Japan Science and Technology Agency, dated 2026)
